Laboratory results reported in the supplement of paper PMC4466236.
In all, about 33,000 sequences were measured (“E-score (dimensionless, -0.5 to 0.5)”: median about -0.058, highest 2% from about 0.35 on). The list shows a part of the results.

Test system: MvaT
Assay: PBM 8-mer E-score (mean of HK and ME arrays) (E-score (dimensionless, -0.5 to 0.5)); higher = stronger relative binding preference; most listed sequences are background and not binding sites
Protocol: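 Protein binding microarray: GST-tagged full-length MvaT (P. aeruginosa PAO1) bound to two universal double-stranded 60-mer arrays (ME and HK), each with a constant 25-mer primer and a variable 35-mer region covering all 8-mers. The 8-mer E-score (rank-based, range -0.5 to 0.5, >0.45 = specific binding) is the mean of the two arrays.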

Sequence	PBM 8-mer E-score
ATAAGTAG	0.341
ATGCGAAA	0.0921
CTTATCTA	0.209
ACTCAGGG	-0.179
CGAGCGCG	-0.17
CACTAGGG	-0.115
GGACACAC	-0.177
AGTACAAC	0.164
CAATGCGG	-0.152
AAGTATAG	0.167
CCTAGTTC	-0.0922
ATTGCGAG	0.0265
AATCGACA	0.0138
ACTCGTCG	-0.122
TATTTTCA	0.277
TCTGGGAA	-0.0482
AGCTACCT	-0.122
GTTCTAGA	0.07
CTGCTCCA	-0.177
AGCTTTTG	-0.0234
TCGTCGAA	0.0414
GCCACCAA	-0.112
CACACCAA	-0.000869
ATGTCATA	0.209
CTTCATGC	-0.0638

Sequence	PBM 8-mer E-score
AGCGTCAC	-0.0128
CTTGACCC	-0.171
AGATCAGG	-0.023
GTTCTATA	0.212
TAAAGTAA	0.365
ACCTCAAG	-0.0997
CATTGAAC	0.173
AATGACAT	0.166
CCCATAGA	0.0156
CGCTAAAA	0.129
GTGCGCAC	0.118
ACATCGGT	-0.112
AAGAGCAA	-0.00896
GAAAGTAA	0.314
AAGTGACG	-0.0196
ACCGCCAG	-0.195
CCAGCATA	0.0576
ACACTTCA	0.218
CTTCAGGA	0.184
AGTCAAAA	0.196
AGAGCTCG	-0.162
GTCTCGGA	-0.186
AGGCTTGC	-0.082
CCTGATAG	-0.116
ATCGGTCC	-0.188

Sequence	PBM 8-mer E-score
ACTTTACC	0.208
TGGGATAA	0.0691
TCCTAGGA	-0.237
GGCGCGTA	-0.204
GATATTCC	0.229
CCCCCCTA	-0.232
CGCATATA	0.327
TATGCACA	0.217
ATGATTCC	-0.0464
GAGTCGAA	-0.0785
AAGACTGG	0.0219
CGACAGAG	-0.143
CGAGTCCG	-0.186
TACTAAGA	0.213
AGATAGGC	-0.0353
CCTCGTCG	-0.254
CAGGGGTC	-0.34
TGGAGCCA	-0.213
ACCACAGC	-0.0318
CTGCGGAC	-0.187
CTAGTTAA	0.36
AACTCGGC	-0.00607
GGGTCCAC	-0.22
ACTGCAGA	0.0352
CTGGAAAA	0.0443

Sequence	PBM 8-mer E-score
CCCCCGGG	-0.383
TCGTGACA	-0.206
CATACCTA	0.0109
ACGTGCCG	-0.168
CAATAGAG	0.113
AGCACGGG	-0.199
GAGGTGGA	-0.206
GCCGAGGA	-0.303
ACCGAAGG	-0.223
AGAAGTAT	0.294
CGCGTAGA	-0.205
GGAGCAGA	-0.231
AGAAGGTC	-0.168
TACCCACA	0.0694
GAAACAGA	-0.0327
ATGCCGGA	-0.112
GGCCGGTA	-0.157
TAAGGGTA	0.0961
CAATAACC	0.223
TCTCCCCA	-0.0894
ACCCTTCA	-0.0969
CCTTATAG	0.013
TAGATTGA	0.0246
ACTAAGCC	0.047
CCATATCG	-0.0357

Sequence	PBM 8-mer E-score
CTACCTAC	-0.00994
CACAGGTA	-0.0554
AGAAATTA	0.25
AGAGGAGA	-0.0825
CAACGAAC	-0.137
AACTACTT	0.294
CAAGCGGG	-0.216
GGGGTCAC	-0.243
GTGGAACA	-0.126
CTGCCGGC	-0.139
AAATATCC	0.253
ACGCCGAC	-0.216
TCGGTTAA	0.0426
CGGGTGGA	-0.152
CTGCGAGC	-0.224
ACTGAGAC	-0.0275
ATGGCTTC	-0.171
ATTACGCC	-0.0047
CTCGATTC	-0.0837
GCAAGTAA	0.224
AACCGAAT	0.17
ATCTGTCA	-0.0238
AAATTGGT	0.113
ATTTCCGG	-0.145
ATCTTCAG	0.162

Sequence	PBM 8-mer E-score
GTGTGGCA	0.0427
CACCTTGG	-0.261
GCAGGCTA	-0.169
ACGTGGGC	-0.242
CTGCCGGA	-0.117
ATGGACTA	-0.0113
CGTATGAA	0.0866
CTTCTTTA	0.159
CACACGAA	-0.0119
AAACCCGC	0.0889
ATTCCAAT	0.109
AAGGCGCG	-0.122
ATGCAATC	-0.0112
GTAAATTA	0.391
CAGGCCGC	-0.214
ACCTTCAG	-0.221
TGGTTACA	-0.0203
ATACCTTC	-0.0131
ACCAGAAG	-0.0454
ACAGACTA	0.136
CCGGCTCA	-0.137
ATGCCGAG	-0.0941
CCTTTAAC	0.0835
AATCCTTA	0.0689
GAAGTCAA	-0.0526

Sequence	PBM 8-mer E-score
AGCCTTTC	-0.127
ATTCAACA	0.221
AAAAGCCT	0.0139
ATAGTCAT	0.111
ATTCGCGA	0.0198
CCCCCCCG	-0.261
CACGCTCC	-0.305
CAGATATA	0.237
CGAATCCG	-0.0769
CAAGTATG	0.259
TCGAGCGA	-0.029
CAAATCAA	0.127
CCGCACAC	-0.0871
ACACAAAG	0.0167
AATTGTCC	0.179
ACAGTACA	0.0121
AGATCGGA	-0.084
CCTGATTA	0.045
CCGACTGA	-0.0955
CCGACGCC	-0.328
AATAGGGT	0.087
CACACTCA	0.0366
ATGTGGCG	-0.0601
GCCCTCGC	-0.307
GTGTATAA	0.202

Sequence	PBM 8-mer E-score
CCCGGGCC	-0.366
AGCCTCCC	-0.284
ATACACTA	0.225
GAAACGAC	-0.152
AAAAAAAC	0.169
ACCCCGTA	-0.154
GCTGCACA	-0.00473
ACTTGAGG	0.08
CAAGGACG	-0.238
ACCTAACA	-0.00971
AGACTTTA	0.214
AGCACAGA	-0.104
GAAATCTA	0.0481
ATGTCTGG	-0.153
AGAATTCT	0.318
CCTGTCGC	-0.146
AGGGAATG	-0.0716
AGACAGTG	-0.0148
CCTTTTTC	-0.162
GTAGTTTA	0.297
GAATAGCA	0.0291
ATTGTACA	0.265
TTATGCAA	0.259
AAGTACGC	-0.0173
ACGCTGGC	-0.00461

Sequence	PBM 8-mer E-score
AACAGTAC	0.144
CTTGAGGC	-0.134
GTGACAGA	-0.202
ACTGAACG	-0.0445
CAAAGGCC	-0.24
ACGGGCCA	-0.128
CGCCGGCA	-0.168
CCGACCCA	-0.157
GACTGTGC	-0.117
CCCCTGCG	-0.275
TGACTCAA	-0.0294
ATCCAAAT	-0.0305
GAAAACCA	-0.0697
ATCGCATA	0.08
ATGGGATA	0.11
ACTGCTCA	-0.166
GGTCCTTA	-0.169
AGATTCCG	-0.0153
GCGGGCCC	-0.31
CCCTCTTC	-0.285
ATTCCCAA	0.13
ACATTAAC	0.345
GTTTTTCA	0.0388
AGTTCCGC	0.0473
ACGAGGAT	-0.159

Sequence	PBM 8-mer E-score
CTCCTTAC	-0.18
AGCGTCCT	-0.308
GGCAGAAA	-0.0173
CGCTAGTC	-0.127
CTCGTCTA	-0.0914
AAGTACAC	0.0927
AAGCAATA	0.269
ATAGGCCC	-0.207
AACGGCTA	-0.0879
GTCCTCAC	-0.194
AGTTGGGG	-0.0196
CAAAAGGA	-0.0763
CGCACATA	0.171
AGAGAGCT	-0.165
CCAGGCCG	-0.184
GACGAACA	-0.0414
ATTCAAGA	-0.0191
AATTCTGA	0.0908
GTCCTCAA	-0.104
CGGGTCCC	-0.152
GTGAGGGA	0.0164
TAAGCACA	0.141
ATACACTC	0.143
CTCAAGGC	-0.227
CAACGTCG	-0.138

Sequence	PBM 8-mer E-score
GACGCGGA	-0.187
ATGTGCTC	-0.000921
ATCCCATG	-0.165
CCGCATAC	-0.000306
GGTCAGCA	-0.214
GCGTATAC	0.0771
ATCCAGCA	0.00328
AGGAGAAC	-0.112
CGTTGTAC	-0.0465
ATGGAGTA	0.0119
CTAATTCA	0.228
CGCATGTA	-0.00658
CGTACAAG	-0.0572
ATGTCGTG	0.0144
AGTTATAA	0.43
CAGTGAAA	-0.0731
ATGTCTGA	-0.0388
AAGCTCGA	-0.218
ACTGTTAC	0.147
AGTTATGC	0.246
ACCGCCTA	-0.0872
ACAGCACC	-0.0822
CCATTTTC	0.0198
CATATTAA	0.418
ACAGCCGG	-0.209

Sequence	PBM 8-mer E-score
ACCAAGCA	0.0548
GGTTTGGA	-0.178
GACCATGC	-0.212
GTAATGGA	0.105
ACTCCTGG	-0.0912
CCGATACG	-0.235
CCGTCAGG	-0.209
AAGACTTC	0.0628
AGCCTGCC	-0.198
GGCGCCGA	-0.151
AACGAACA	0.0294
GAGACCGA	-0.137
CAACGTCA	-0.0704
TCCAAAAA	0.14
CACGTTCG	-0.179
CTAGGAGA	-0.11
AACCGCGT	-0.133
GTACTTAA	0.227
CACAGGTC	-0.205
ATAGGCCG	-0.00347
ATACAAAC	0.305
CACGTAGC	-0.14
CATGAACC	-0.181
GAATTGGA	-0.102
CGTTGCCC	-0.207

Sequence	PBM 8-mer E-score
CCCCTAAG	-0.161
TGACTCCA	-0.0409
TTAATAAA	0.432
ACTAAACA	0.197
CGTCATTA	-0.0328
AACCAACA	0.2
ATCATCCC	-0.0961
CGTTTATC	0.128
GTCAACCA	0.0444
ATGACGAC	-0.0497
ACCACGCG	-0.11
ATAGTGGG	0.0892
CGTGGCAG	-0.0994
GTTAGGGA	-0.125
CGCGTGGA	-0.0505
GCCTAGGC	-0.274
ACGTCTAG	-0.0697
CCTGGCTC	-0.263
AGTGACCG	-0.174
ACCGTGGA	-0.0746
CAGTAAGA	0.117
CCGACGAA	-0.1
ACTCACGG	-0.0293
AGTGGTGC	-0.111
GCCTGACC	-0.304

Sequence	PBM 8-mer E-score
AGGTGAGC	-0.188
ACCCCCTG	-0.329
CAACTGGG	-0.206
GATCCCCA	-0.375
CGAATCTA	-0.144
TGGCAGAA	-0.0937
CCCTGTTC	-0.223
CTTCCAAG	-0.0921
GTTGCATA	0.0505
ATCTCGCG	-0.00457
GAGCACAC	-0.11
ACTGTTTA	0.254
AGTCTCAG	-0.159
ATCTACTA	0.127
AAGCCATG	-0.168
ATGTTAAC	0.363
CCAATCGA	-0.0723
GATACTTA	0.249
AACATAAG	0.298
